Assay results: paper PMC3419181
These are yes or no findings as the source states them, for the method shown. For some assays here: In cells and extracts the contact can be indirect. Some binding calls cover weakened binding; strength is not graded here. For some assays here: Tags and fused reporters may be left off the sequences shown.

Key:
[1] = target: TNIK (endogenous, HEK293) (human (endogenous in HEK293)) (UniProt Q9UKE5); test: co-IP; HEK293 cells transfected with LMP1 constructs or LMP1-TNFR1 chimeras; endogenous TNIK immunoprecipitated with anti-TNIK; immunoblot with anti-LMP1 (CS1-4) or anti-HA (3F10)
HA-TNIK (human) [2] = target: HA-TNIK (human) (UniProt Q9UKE5); test: co-IP; HEK293 cells co-transfected with tagged TNIK and the tagged partner, with pSV-LMP1 co-expressed; tagged TNIK immunoprecipitated by anti-HA (12CA5) or anti-Flag (6F7); immunoblot
HA-TNIK (human) [3] = target: HA-TNIK (human) (UniProt Q9UKE5); test: co-IP; HEK293 cells co-transfected with tagged TNIK (or HA-TNIK domain constructs) and the tagged partner, without LMP1; tagged TNIK immunoprecipitated by anti-HA (12CA5) or anti-Flag (6F7); immunoblot
[4] = target: Flag-TNIK (HEK293) (human) (UniProt Q9UKE5); test: co-IP; HEK293 cells co-transfected with tagged TNIK and the tagged partner, with pSV-LMP1 co-expressed; tagged TNIK immunoprecipitated by anti-HA (12CA5) or anti-Flag (6F7); immunoblot
[5] = target: Flag-TNIK (HEK293) (human) (UniProt Q9UKE5); test: co-IP; HEK293 cells co-transfected with tagged TNIK (or HA-TNIK domain constructs) and the tagged partner, without LMP1; tagged TNIK immunoprecipitated by anti-HA (12CA5) or anti-Flag (6F7); immunoblot
[6] = target: TRAF2- and Nck-interacting kinase (TNIK), endogenous in lymphoblastoid cells (human (endogenous in LCL 721 and LCL-TEV.5)) (UniProt Q9UKE5); test: co-IP; endogenous proteins from LCL 721 lysates (3 to 5 mg total protein); immunoprecipitation with anti-TNIK or anti-LMP1 (1G6-3) coupled to protein-G-sepharose; immunoblot
GST-TNIK-KD(KM) (human) = target: T1, GST-TNIK-KD(KM) (human) (UniProt Q9UKE5); test: pull-down; 1 µg His-TRAF incubated 1 h at 4°C in 500 µl TBS pH 7.4, 0.1% BSA, 0.5% Tween 20 with GST-TNIK domains or GST immobilised on glutathione sepharose; bound TRAF detected by immunoblot; both purified
T1 sequence: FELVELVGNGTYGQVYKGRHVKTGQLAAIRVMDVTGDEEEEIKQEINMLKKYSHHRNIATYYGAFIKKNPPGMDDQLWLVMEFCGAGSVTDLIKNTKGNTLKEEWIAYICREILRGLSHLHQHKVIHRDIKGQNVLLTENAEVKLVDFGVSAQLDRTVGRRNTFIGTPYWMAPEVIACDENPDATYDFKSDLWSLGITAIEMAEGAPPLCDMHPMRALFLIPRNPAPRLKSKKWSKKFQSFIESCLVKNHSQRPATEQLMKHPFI

HA-LMP1Δ371–386 (from UniProt P03230 1-370) (domain or fragment)
binding [1]: no binding

B1: Flag-TAK1 (protein, UniProt O43318 1-606)
chain: MSTASAASSSSSSSAGEMIEAPSQVLNFEEIDYKEIEVEEVVGRGAFGVVCKAKWRAKDVAIKQIESESERKAFIVELRQLSRVNHPNIVKLYGACLNPVCLVMEYAEGGSLYNVLHGAEPLPYYTAAHAMSWCLQCSQGVAYLHSMQPKALIHRDLKPPNLLLVAGGTVLKICDFGTACDIQTHMTNNKGSAAWMAPEVFEGSNYSEKCDVFSWGIILWEVITRRKPFDEIGGPAFRIMWAVHNGTRPPLIKNLPKPIESLMTRCWSKDPSQRPSMEEIVKIMTHLMRYFPGADEPLQYPCQYSDEGQSNSATSTGSFMDIASTNTSNKSDTNMEQVPATNDTIKRLESKLLKNQAKQQSESGRLSLGASRGSSVESLPPTSEGKRMSADMSEIEARIAATTAYSKPKRGHRKTASFGNILDVPEIVISGNGQPRRRSIQDLTVTGTEPGQVSSRSSSPSVRMITTSGPTSEKPTRSHPWTPDDSTDTNGSDNSIPMAYLTLDHQLQPLAPCPNSKESMAVFEQHCKMAQEYMKVQTEIALLLQRKQELVAELDQDEKDQQNTSRLVQEHKKLLDENKSLSTYYQQCKKQLEVIRSQQQKRQGTS
binding (HA-TNIK (human) [2]): binds | binding (HA-TNIK (human) [3]): binds

B2: HA-TAB2 (protein, UniProt Q9NYJ8 1-693)
chain: MAQGSHQIDFQVLHDLRQKFPEVPEVVVSRCMLQNNNNLDACCAVLSQESTRYLYGEGDLNFSDDSGISGLRNHMTSLNLDLQSQNIYHHGREGSRMNGSRTLTHSISDGQLQGGQSNSELFQQEPQTAPAQVPQGFNVFGMSSSSGASNSAPHLGFHLGSKGTSSLSQQTPRFNPIMVTLAPNIQTGRNTPTSLHIHGVPPPVLNSPQGNSIYIRPYITTPGGTTRQTQQHSGWVSQFNPMNPQQVYQPSQPGPWTTCPASNPLSHTSSQQPNQQGHQTSHVYMPISSPTTSQPPTIHSSGSSQSSAHSQYNIQNISTGPRKNQIEIKLEPPQRNNSSKLRSSGPRTSSTSSSVNSQTLNRNQPTVYIAASPPNTDELMSRSQPKVYISANAATGDEQVMRNQPTLFISTNSGASAASRNMSGQVSMGPAFIHHHPPKSRAIGNNSATSPRVVVTQPNTKYTFKITVSPNKPPAVSPGVVSPTFELTNLLNHPDHYVETENIQHLTDPTLAHVDRISETRKLSMGSDDAAYTQALLVHQKARMERLQRELEIQKKKLDKLKSEVNEMENNLTRRRLKRSNSISQIPSLEEMQQLRSCNRQLQIDIDCLTKEIDLFQARGPHFNPSAIHNFYDNIGFVGPVPPKPKDQRSIIKTPKTQDTEDDEGAQWNCTACTFLNHPALIRCEQCEMPRHF
binding [4]: binds | binding [5]: binds weakly

B3: Flag-IKKβ (protein, UniProt O14920 1-756)
chain: MSWSPSLTTQTCGAWEMKERLGTGGFGNVIRWHNQETGEQIAIKQCRQELSPRNRERWCLEIQIMRRLTHPNVVAARDVPEGMQNLAPNDLPLLAMEYCQGGDLRKYLNQFENCCGLREGAILTLLSDIASALRYLHENRIIHRDLKPENIVLQQGEQRLIHKIIDLGYAKELDQGSLCTSFVGTLQYLAPELLEQQKYTVTVDYWSFGTLAFECITGFRPFLPNWQPVQWHSKVRQKSEVDIVVSEDLNGTVKFSSSLPYPNNLNSVLAERLEKWLQLMLMWHPRQRGTDPTYGPNGCFKALDDILNLKLVHILNMVTGTIHTYPVTEDESLQSLKARIQQDTGIPEEDQELLQEAGLALIPDKPATQCISDGKLNEGHTLDMDLVFLFDNSKITYETQISPRPQPESVSCILQEPKRNLAFFQLRKVWGQVWHSIQTLKEDCNRLQQGQRAAMMNLLRNNSCLSKMKNSMASMSQQLKAKLDFFKTSIQIDLEKYSEQTEFGITSDKLLLAWREMEQAVELCGRENEVKLLVERMMALQTDIVDLQRSPMGRKQGGTLDDLEEQARELYRRLREKPRDQRTEGDSQEMVRLLLQAIQSFEKKVRVIYTQLSKTVVCKQKALELLPKVEEVVSLMNEDEKTVVRLQEKRQKELWNLLKIACSKVRGPVSGSPDSMNASRLSQPGQLMSQPSTASNSLPEPAKKSEELVAEAHNLCTLLENAIQDTVREQDQSFTALDWSWLQTEEEEHSCLEQAS
binding (HA-TNIK (human) [2]): binds

B4: TAK1 (endogenous, LCL 721) (protein, UniProt O43318 1-606)
chain: MSTASAASSSSSSSAGEMIEAPSQVLNFEEIDYKEIEVEEVVGRGAFGVVCKAKWRAKDVAIKQIESESERKAFIVELRQLSRVNHPNIVKLYGACLNPVCLVMEYAEGGSLYNVLHGAEPLPYYTAAHAMSWCLQCSQGVAYLHSMQPKALIHRDLKPPNLLLVAGGTVLKICDFGTACDIQTHMTNNKGSAAWMAPEVFEGSNYSEKCDVFSWGIILWEVITRRKPFDEIGGPAFRIMWAVHNGTRPPLIKNLPKPIESLMTRCWSKDPSQRPSMEEIVKIMTHLMRYFPGADEPLQYPCQYSDEGQSNSATSTGSFMDIASTNTSNKSDTNMEQVPATNDTIKRLESKLLKNQAKQQSESGRLSLGASRGSSVESLPPTSEGKRMSADMSEIEARIAATTAYSKPKRGHRKTASFGNILDVPEIVISGNGQPRRRSIQDLTVTGTEPGQVSSRSSSPSVRMITTSGPTSEKPTRSHPWTPDDSTDTNGSDNSIPMAYLTLDHQLQPLAPCPNSKESMAVFEQHCKMAQEYMKVQTEIALLLQRKQELVAELDQDEKDQQNTSRLVQEHKKLLDENKSLSTYYQQCKKQLEVIRSQQQKRQGTS
binding [6]: binds

B5: TAB2 (endogenous, LCL 721) (protein, UniProt Q9NYJ8 1-693)
chain: MAQGSHQIDFQVLHDLRQKFPEVPEVVVSRCMLQNNNNLDACCAVLSQESTRYLYGEGDLNFSDDSGISGLRNHMTSLNLDLQSQNIYHHGREGSRMNGSRTLTHSISDGQLQGGQSNSELFQQEPQTAPAQVPQGFNVFGMSSSSGASNSAPHLGFHLGSKGTSSLSQQTPRFNPIMVTLAPNIQTGRNTPTSLHIHGVPPPVLNSPQGNSIYIRPYITTPGGTTRQTQQHSGWVSQFNPMNPQQVYQPSQPGPWTTCPASNPLSHTSSQQPNQQGHQTSHVYMPISSPTTSQPPTIHSSGSSQSSAHSQYNIQNISTGPRKNQIEIKLEPPQRNNSSKLRSSGPRTSSTSSSVNSQTLNRNQPTVYIAASPPNTDELMSRSQPKVYISANAATGDEQVMRNQPTLFISTNSGASAASRNMSGQVSMGPAFIHHHPPKSRAIGNNSATSPRVVVTQPNTKYTFKITVSPNKPPAVSPGVVSPTFELTNLLNHPDHYVETENIQHLTDPTLAHVDRISETRKLSMGSDDAAYTQALLVHQKARMERLQRELEIQKKKLDKLKSEVNEMENNLTRRRLKRSNSISQIPSLEEMQQLRSCNRQLQIDIDCLTKEIDLFQARGPHFNPSAIHNFYDNIGFVGPVPPKPKDQRSIIKTPKTQDTEDDEGAQWNCTACTFLNHPALIRCEQCEMPRHF
binding [6]: binds

B6: IKKβ (endogenous, LCL 721) (protein, UniProt O14920 1-756)
chain: MSWSPSLTTQTCGAWEMKERLGTGGFGNVIRWHNQETGEQIAIKQCRQELSPRNRERWCLEIQIMRRLTHPNVVAARDVPEGMQNLAPNDLPLLAMEYCQGGDLRKYLNQFENCCGLREGAILTLLSDIASALRYLHENRIIHRDLKPENIVLQQGEQRLIHKIIDLGYAKELDQGSLCTSFVGTLQYLAPELLEQQKYTVTVDYWSFGTLAFECITGFRPFLPNWQPVQWHSKVRQKSEVDIVVSEDLNGTVKFSSSLPYPNNLNSVLAERLEKWLQLMLMWHPRQRGTDPTYGPNGCFKALDDILNLKLVHILNMVTGTIHTYPVTEDESLQSLKARIQQDTGIPEEDQELLQEAGLALIPDKPATQCISDGKLNEGHTLDMDLVFLFDNSKITYETQISPRPQPESVSCILQEPKRNLAFFQLRKVWGQVWHSIQTLKEDCNRLQQGQRAAMMNLLRNNSCLSKMKNSMASMSQQLKAKLDFFKTSIQIDLEKYSEQTEFGITSDKLLLAWREMEQAVELCGRENEVKLLVERMMALQTDIVDLQRSPMGRKQGGTLDDLEEQARELYRRLREKPRDQRTEGDSQEMVRLLLQAIQSFEKKVRVIYTQLSKTVVCKQKALELLPKVEEVVSLMNEDEKTVVRLQEKRQKELWNLLKIACSKVRGPVSGSPDSMNASRLSQPGQLMSQPSTASNSLPEPAKKSEELVAEAHNLCTLLENAIQDTVREQDQSFTALDWSWLQTEEEEHSCLEQAS
binding [6]: binds

B7: His-TRAF6(310–522) (domain or fragment, UniProt Q9Y4K3 310-522)
chain: DHQIRELTAKMETQSMYVSELKRTIRTLEDKVAEIEAQQCNGIYIWKIGNFGMHLKCQEEEKPVVIHSPGFYTGKPGYKLCMRLHLQLPTAQRCANYISLFVHTMQGEYDSHLPWPFQGTIRLTILDQSEAPVRQNHEEIMDAKPELLAFQRPTIPRNPKGFGYVTFMHLEALRQRTFIKDDTLLVRCEVSTRFDMGSLRREGFQPRSTDAGV
binding (GST-TNIK-KD(KM) (human)): no binding (tested: 1 µg of His-TRAF6(310–522) in 500 µl)

B8: His-TRAF2(311–501) (domain or fragment, UniProt Q12933 311-501)
chain: QDKIEALSSKVQQLERSIGLKDLAMADLEQKVLEMEASTYDGVFIWKISDFARKRQEAVAGRIPAIFSPAFYTSRYGYKMCLRIYLNGDGTGRGTHLSLFFVVMKGPNDALLRWPFNQKVTLMLLDQNNREHVIDAFRPDVTSSSFQRPVNDMNIASGCPLFCPVSKMEAKNSYVRDDAIFIKAIVDLTGL
binding (GST-TNIK-KD(KM) (human)): no binding (tested: 1 µg of His-TRAF2(311–501) in 500 µl)
